Laboratory results: patent US9458101B2, “Colchicine derivatives, methods and uses thereof” (priority 2009, dated 2016)
Read-outs that look alike come from different tables or passages of the source.

How the values were obtained:
CEM cells = assay: cells; type: cell-based, Human; settings: for IC50: 72 h, read-out: IC50 of cell growth inhibition
[1] = system: A549 (Human lung carcinoma); assay: Cytotoxicity testing (MTS) on A549; type: cell-based
Protocol: (§1) Cell lines used were A549 (Human lung carcinoma), HeLa (Human cervical carcinoma), MCF-7 (Human mammary gland adenocarcinoma), CEM (Human T-lymphoblastoid from ALL (Acute lymphoblastic leukemia)), M010B (Human glioma), M006X (Human glioma) and Jurkat (Human T-cell leukemia).
(§2) A series of dilutions were prepared and a wavelength scan of the diluted solution was used to determine the wavelength of maximum absorbance for each compound. Five standardized drug concentrations were scanned at this pre-determined wavelength to obtain an estimate of the compound's extinction coefficient.
(§3) A primary MTS assay was used to test the optimal number of cells for cytotoxicity assays. Cells were trypsinized, counted and introduced into seven lanes of a 96-well plate at different cell numbers (eight replicates per lane). Optimal cell numbers were determined after 72 and 96 hours of growth and were used in subsequent cytotoxicity assays. […] Cell viability was determined using the Cell Titer 96 AQueous One Solution Cell Proliferation Assay (Promega, U.S.A.).
(§4) Fits were performed using a dose-response model ideal for data showing an initial response plateau, a transition region, and a final response plateau.
(§5) [formula] […] Itop is the response obtained at very low/no drug concentration. The data and all parameters were normalized to Itop−Ibot, a measure of the maximum effect of the drug.

[2] = system: HeLa (Human cervical carcinoma); assay: Cytotoxicity testing (MTS) on HeLa; type: cell-based
Protocol: as §1, §2, §3, §4, §5

[3] = system: MCF-7 (Human mammary gland adenocarcinoma); assay: Cytotoxicity testing (MTS) on MCF-7; type: cell-based
Protocol: as §1, §2, §3, §4, §5

[4] = system: CEM (Human T-lymphoblastoid from ALL); assay: Cytotoxicity testing (MTS) on CEM; type: cell-based
Protocol: as §1, §2, §3, §4, §5

M010B (Human glioma) = assay: Cytotoxicity testing (MTS) on M010B; type: cell-based
Protocol: as §1, §2, §3, §4, §5

M006X (Human glioma) = assay: Cytotoxicity testing (MTS) on M006X; type: cell-based
Protocol: as §1, §2, §3, §4, §5

[5] = system: A549, HeLa, MCF-7 and CEM cell lines; assay: Cytotoxicity, mean over A549, HeLa, MCF-7 and CEM cell lines
Excerpt: as §1, §3, §5
Cytotoxicity screening was performed on a number of cell lines based on the cancer of origin and differing morphologies.

[6] = system: A549 (Human lung adenocarcinoma); assay: cells; type: cell-based; settings: A549, 72 h, read-out: logIC50 (converted)
Excerpt: (§6) A set of seven colchicine derivatives purchased from ChemRoutes was screened against a set of four cell lines obtained from the Cross Cancer Institute's frozen human cell line collection. A full factorial experimental design was used, for a total of 28 cases.
(§7) Cell lines used were A549 (Human lung adenocarcinoma), NCI-H226 (Human lung squamous cell carcinoma), CCRF-CEM (Human T-lymphoblastoids from ALL), and MCF-7 (Human mammary gland adenocarcinoma).
(§8) For each (cell line, compound) pair, the following conditions were used, with each condition being assigned to a lane on a microtiter plate: • a. Seven or eight concentration levels between 1×10^−10 M and 1×10^−3 M. • b. A control with cells and media only. • c. A control with cells, media and DMSO only. The DMSO was at a concentration approximately equal to that used in the highest drug concentration level.
(§9) Additionally, 6-8 replicates (wells) of each condition were done on the plate. Drug solutions were prepared by dissolving the solid compounds in DMSO and then diluting in water. An approximately equal number of cells were introduced into each well of the plate and cells were incubated for 72 hours. An MTS assay was performed and absorbance values were measured with a spectrophotometer. Finally, a log IC50 parameter was calculated by fitting a 4-parameter logistic model to the data using an implementation of the Levenberg-Marquardt algorithm.

[7] = system: CCRF-CEM (Human T-lymphoblastoids from ALL); assay: cells; type: cell-based; settings: 72 h, read-out: logIC50 (converted)
Excerpt: as §6, §7, §8, §9

[8] = system: NCI-H226 (Human lung squamous cell carcinoma); assay: cells; type: cell-based; settings: NCI-H226, 72 h, read-out: logIC50 (converted)
Excerpt: as §6, §7, §8, §9

[9] = read-out: IC50 previously reported; Cragg G. M. et al. 2005; cited from earlier work
βII or βIII = settings: assumed for Kd calculation, Banerjee et al. 1992; cited from earlier work
[10] = system: MCF-7 (Human mammary gland adenocarcinoma); assay: cells; type: cell-based; settings: MCF7, 72 h, read-out: logIC50 (converted)
Excerpt: as §6, §7, §8, §9

[11] = Homo sapiens, read-out: logIC50 (converted)

SMILES: COc1cc2c(c(OC)c1OC)-c1ccc(OC)c(=O)cc1[C@@H](NC(C)=O)CC2 [Colchicine, N-[(7S)-1,2,3,10-tetramethoxy-9-oxo-5,6,7,9-tetrahydrobenzo[α]heptalen-7-yl]acetamide]
- IC50 (CEM cells; Homo sapiens, CCRF-CEM): 40 nM
- IC50 ([1]; Homo sapiens, A549, read-out: logIC50 (converted)): 347 nM
- IC50 [2, 11]: 138 nM
- IC50 ([3]; Homo sapiens, MCF7, read-out: logIC50 (converted)): 14.8 nM
- IC50 ([4]; Homo sapiens, CCRF-CEM, read-out: logIC50 (converted)): 9.33 nM
- IC50 (M010B (Human glioma); [11]): 20 nM
- IC50 (M006X (Human glioma); [11]): 4.47 nM
- IC50 ([5]; Homo sapiens, read-out: IC50 [log10 M] (mean logIC50) (converted)): 50.1 nM
- IC50 [6]: 50.1 nM
- IC50 [7]: 7.94 nM
- IC50 [8]: 50.1 nM
- IC50 [9]: 29 ± 2.2 nM
- koff (βII or βIII): 0.00025 s⁻¹

SMILES: COc1c(O)cc2c(c1OC)-c1ccc(SC)c(=O)cc1[C@@H](NC(C)=O)CC2 [Compound 40, N-[(7S)-3-hydroxy-1,2-dimethoxy-3-hydroxy-10-methylsulfanyl-9-oxo-5,6,7,9-tetrahydrobenzo[α]heptalen-7-yl]acetamide]
- IC50 (CEM cells; CEM cells, conventional culture): 5.1 ± 1.3 nM
- Fraction of cells that survive at the highest drug concentrations (Ibot) ([1]; A549): 0.230 ± 0.027
- logIC50 ([1]; A549): −7.38 ± 0.14 log10 M
- Fraction of cells that survive at the highest drug concentrations (Ibot) [2]: 0.039 ± 0.026
- logIC50 [2]: −7.77 ± 0.09 log10 M
- Fraction of cells that survive at the highest drug concentrations (Ibot) ([3]; MCF-7): 0.459 ± 0.013
- logIC50 ([3]; MCF-7): −7.37 ± 0.11 log10 M
- Fraction of cells that survive at the highest drug concentrations (Ibot) ([4]; CEM): 0.015 ± 0.022
- logIC50 ([4]; CEM): −8.47 ± 0.13 log10 M
- Fraction of cells that survive at the highest drug concentrations (Ibot) (M010B (Human glioma); M010B): 0.118 ± 0.026
- logIC50 (M010B (Human glioma); M010B): −7.65 ± 0.10 log10 M
- Fraction of cells that survive at the highest drug concentrations (Ibot) (M006X (Human glioma); M006X): 0.061 ± 0.029
- logIC50 (M006X (Human glioma); M006X): −8.34 ± 0.12 log10 M
- IC50 [log10 M] (mean logIC50) ([5]; mean over A549, HeLa, MCF-7 and CEM cell lines): −7.74 ± 0.12 log10 M

SMILES: COc1cc2c(c(OC)c1OC)-c1ccc(SC)c(=O)cc1[C@@H](NC(C)=O)CC2 [Compound 39, N-[(7S)-1,2,3-trimethoxy-10-methylsulfanylo-9-oxo-5,6,7,9-tetrahydrobenzo[α]heptalen-7-yl]acetamide, reference compound]
- fold lower IC50 than IC50 of Colchicine (CEM cells): about 5 fold
- IC50 (CEM cells; Homo sapiens, CCRF-CEM): 8.5 nM
- IC50 [6]: 100 nM
- IC50 [7]: 2 nM
- IC50 [10]: 100000 nM
- IC50 [8]: 7.94 nM
